From article PMC9911399, “Two distinct binding modes provide the RNA-binding protein RbFox with extraordinary sequence specificity” come the findings set out here.

Positions count from the first letter of the chain named. This is one part of the list.

T1: RBFOX1 RRM (Homo sapiens, UniProt Q9NWB1 109-208)
T1 sequence: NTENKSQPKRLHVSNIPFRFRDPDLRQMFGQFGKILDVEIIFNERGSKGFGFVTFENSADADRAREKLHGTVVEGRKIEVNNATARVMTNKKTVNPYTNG

B1: GCUAAGC (DNA:RNA)
RNA: GGGAGACCGGAAUUCAGAUUGUCCGCUAAGCUUAAAUCCCGUCGUAGCCACCA
DNA 1: CAATCTGAATTCCGGTCTCCC
DNA 2: TGGTGGCTACGACGGGATT
B2: UGAUUAA (DNA:RNA)
RNA: GGGAGACCGGAAUUCAGAUUGUCCUGAUUAAUUAAAUCCCGUCGUAGCCACCA
DNA 1: CAATCTGAATTCCGGTCTCCC
DNA 2: TGGTGGCTACGACGGGATT
B3: AUAGGUU (DNA:RNA)
RNA: B2 RNA with U25A, G26U, U28G, U29G, A30U, A31U
DNA 1: CAATCTGAATTCCGGTCTCCC
DNA 2: TGGTGGCTACGACGGGATT
B4: UCAUGUA (DNA:RNA)
RNA: B2 RNA with G26C, U29G, A30U
DNA 1: CAATCTGAATTCCGGTCTCCC
DNA 2: TGGTGGCTACGACGGGATT
B5: CCUAAUU (DNA:RNA)
RNA: B1 RNA with G25C, G30U, C31U
DNA 1: CAATCTGAATTCCGGTCTCCC
DNA 2: TGGTGGCTACGACGGGATT
B6: UCCAUCA (DNA:RNA)
RNA: B2 RNA with G26C, A27C, U28A, A30C
DNA 1: CAATCTGAATTCCGGTCTCCC
DNA 2: TGGTGGCTACGACGGGATT
B7: CUAAGUU (DNA:RNA)
RNA: B1 RNA with G25C, C26U, U27A, A29G, G30U, C31U
DNA 1: CAATCTGAATTCCGGTCTCCC
DNA 2: TGGTGGCTACGACGGGATT
B8: UAUUUAC (DNA:RNA)
RNA: B2 RNA with G26A, A27U, A31C
DNA 1: CAATCTGAATTCCGGTCTCCC
DNA 2: TGGTGGCTACGACGGGATT
B9: ACUGCCC (DNA:RNA)
RNA: B1 RNA with G25A, A28G, A29C, G30C
DNA 1: CAATCTGAATTCCGGTCTCCC
DNA 2: TGGTGGCTACGACGGGATT
B10: ACUAGAC (DNA:RNA)
RNA: B1 RNA with G25A, A29G, G30A
DNA 1: CAATCTGAATTCCGGTCTCCC
DNA 2: TGGTGGCTACGACGGGATT
B11: CAGCACC (DNA:RNA)
RNA: B1 RNA with G25C, C26A, U27G, A28C, G30C
DNA 1: CAATCTGAATTCCGGTCTCCC
DNA 2: TGGTGGCTACGACGGGATT
B12: UCAUUUG (DNA:RNA)
RNA: B2 RNA with G26C, A30U, A31G
DNA 1: CAATCTGAATTCCGGTCTCCC
DNA 2: TGGTGGCTACGACGGGATT
B13: CUUAGCA (DNA:RNA)
RNA: B1 RNA with G25C, C26U, A29G, G30C, C31A
DNA 1: CAATCTGAATTCCGGTCTCCC
DNA 2: TGGTGGCTACGACGGGATT
B14: CCUACAU (DNA:RNA)
RNA: B1 RNA with G25C, A29C, G30A, C31U
DNA 1: CAATCTGAATTCCGGTCTCCC
DNA 2: TGGTGGCTACGACGGGATT
B15: AUUACCC (DNA:RNA)
RNA: B1 RNA with G25A, C26U, A29C, G30C
DNA 1: CAATCTGAATTCCGGTCTCCC
DNA 2: TGGTGGCTACGACGGGATT
B16: AAGCGGG (DNA:RNA)
RNA: B1 RNA with G25A, C26A, U27G, A28C, A29G, C31G
DNA 1: CAATCTGAATTCCGGTCTCCC
DNA 2: TGGTGGCTACGACGGGATT
B17: GUUCUAC (DNA:RNA)
RNA: B1 RNA with C26U, A28C, A29U, G30A
DNA 1: CAATCTGAATTCCGGTCTCCC
DNA 2: TGGTGGCTACGACGGGATT
B18: UCCUCAU (DNA:RNA)
RNA: B2 RNA with G26C, A27C, U29C, A31U
DNA 1: CAATCTGAATTCCGGTCTCCC
DNA 2: TGGTGGCTACGACGGGATT
B19: GUUCUUA (DNA:RNA)
RNA: B1 RNA with C26U, A28C, A29U, G30U, C31A
DNA 1: CAATCTGAATTCCGGTCTCCC
DNA 2: TGGTGGCTACGACGGGATT
B20: UUUUCCA (DNA:RNA)
RNA: B2 RNA with G26U, A27U, U29C, A30C
DNA 1: CAATCTGAATTCCGGTCTCCC
DNA 2: TGGTGGCTACGACGGGATT
B21: GAGGUCU (DNA:RNA)
RNA: B1 RNA with C26A, U27G, A28G, A29U, G30C, C31U
DNA 1: CAATCTGAATTCCGGTCTCCC
DNA 2: TGGTGGCTACGACGGGATT
B22: CAUCGCA (DNA:RNA)
RNA: B1 RNA with G25C, C26A, A28C, A29G, G30C, C31A
DNA 1: CAATCTGAATTCCGGTCTCCC
DNA 2: TGGTGGCTACGACGGGATT
B23: CGUACGC (DNA:RNA)
RNA: B1 RNA with G25C, C26G, A29C
DNA 1: CAATCTGAATTCCGGTCTCCC
DNA 2: TGGTGGCTACGACGGGATT
B24: GGCAAUG (DNA:RNA)
RNA: B1 RNA with C26G, U27C, G30U, C31G
DNA 1: CAATCTGAATTCCGGTCTCCC
DNA 2: TGGTGGCTACGACGGGATT
B25: CAACGAA (DNA:RNA)
RNA: B2 RNA with U25C, G26A, U28C, U29G
DNA 1: CAATCTGAATTCCGGTCTCCC
DNA 2: TGGTGGCTACGACGGGATT
B26: UAAGAGA (DNA:RNA)
RNA: B2 RNA with G26A, U28G, U29A, A30G
DNA 1: CAATCTGAATTCCGGTCTCCC
DNA 2: TGGTGGCTACGACGGGATT
B27: GCAGAUG (DNA:RNA)
RNA: B1 RNA with U27A, A28G, G30U, C31G
DNA 1: CAATCTGAATTCCGGTCTCCC
DNA 2: TGGTGGCTACGACGGGATT
B28: CCACGGA (DNA:RNA)
RNA: B1 RNA with G25C, U27A, A28C, A29G, C31A
DNA 1: CAATCTGAATTCCGGTCTCCC
DNA 2: TGGTGGCTACGACGGGATT
B29: ACCAGCG (DNA:RNA)
RNA: B1 RNA with G25A, U27C, A29G, G30C, C31G
DNA 1: CAATCTGAATTCCGGTCTCCC
DNA 2: TGGTGGCTACGACGGGATT
B30: CAAUUAC (DNA:RNA)
RNA: B2 RNA with U25C, G26A, A31C
DNA 1: CAATCTGAATTCCGGTCTCCC
DNA 2: TGGTGGCTACGACGGGATT
B31: GCGUACC (DNA:RNA)
RNA: B1 RNA with U27G, A28U, G30C
DNA 1: CAATCTGAATTCCGGTCTCCC
DNA 2: TGGTGGCTACGACGGGATT

The assay addresses T1, RBFOX1 RRM. As to the kind of experiment: EMSA; HiTS-Eq, 1 nM pool, 10 min; buffer printed only for the single-RNA assays: 10 mM Tris pH 7.5, 150 mM NaCl, 3.4 mM EDTA, 0.001% NP-40, 30 C. Conditions: tags: His6 N-terminal (pET28a); label: 5' 32P. An outline of the steps: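 Purified wild-type or mutant RbFox RRM at increasing concentrations was equilibrated with 1 nM of 5′-radiolabelled RNA carrying 7 randomized nucleotides for 10 min in 50 µL. Unbound RNA was separated by 8% native PAGE and sequenced. Relative association constants came from read-count changes of each RNA species compared with the control reaction, normalised to the cognate motif.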
Take B1: the binding signal was 0.0139 KA relative to UGCAUGU. As to B2, the binding signal was 0.00933 KA relative to UGCAUGU. To B3 belongs 0.00745 KA relative to UGCAUGU. For the molecule B4, the binding signal is 0.00516 KA relative to UGCAUGU.

For the molecule B5, the binding signal was 0.00209 KA relative to UGCAUGU. Under B6 stands 0.00185 KA relative to UGCAUGU; under B7, 0.0066 KA relative to UGCAUGU. B8: the binding signal is 0.0112 KA relative to UGCAUGU.

B9: the binding signal was 0.00841 KA relative to UGCAUGU. To B10 belongs 0.00353 KA relative to UGCAUGU. To B11 belongs 0.00578 KA relative to UGCAUGU; to B12, 0.0136 KA relative to UGCAUGU; to B13, 0.00821 KA relative to UGCAUGU. To B14 belongs 0.00644 KA relative to UGCAUGU; to B15, 0.00021 KA relative to UGCAUGU.

On to B16, for which the binding signal was 0.00843 KA relative to UGCAUGU.

Regarding B17, the binding signal was 0.00913 KA relative to UGCAUGU. Under B18 stands 0.00357 KA relative to UGCAUGU; under B19, 0.00747 KA relative to UGCAUGU. In the case of B20, the binding signal was 0.00889 KA relative to UGCAUGU. To B21 belongs 0.0222 KA relative to UGCAUGU.

Turning to B22, the binding signal is 0.00633 KA relative to UGCAUGU. To B23 belongs 0.00961 KA relative to UGCAUGU; to B24, 0.0118 KA relative to UGCAUGU; to B25, 0.00666 KA relative to UGCAUGU. To B26 belongs 0.00895 KA relative to UGCAUGU; to B27, 0.0112 KA relative to UGCAUGU; to B28, 0.0114 KA relative to UGCAUGU.

On to B29, for which the binding signal is 0.00395 KA relative to UGCAUGU. To B30 belongs 0.00102 KA relative to UGCAUGU. To B31 belongs 0.00754 KA relative to UGCAUGU.
